Results on 24 sequences are retold here after the supplement of paper PMC11417369.

The other results are listed elsewhere or left out.

In the test the test system is PfHDP1 homeodomain (GST-tagged). Kind of test: gcPBM binding intensity (ln(normalized median fluorescence intensity)); higher = stronger DNA binding. In a few lines:
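After 1 h on an Agilent 4 × 180k array of primer-extended double-stranded 36-bp intergenic genomic probes and negative controls, bound GST-tagged P. falciparum DNA-binding domains were detected with Alexa488 anti-GST antibody and scanned at 488 nm. The domains had been expressed in E. coli, and binding took place in 1× PBS with 1% milk, 0.2 mg/ml BSA, 0.5% salmon testes DNA and 0.03% Triton X-100. Binding intensity is the highest Masliner-normalised natural-log median intensity across replicate spots of either probe orientation.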
For the sequence “TAAAATTAAATGAAATCATTATTCATTTTTATTTTA [CACACA_negctrl_site1281]”, the “gcPBM binding intensity (ln)” value was determined as 5.67.
With “ATTCTTTTTTTTTTCTTATATTCTAATCACCACCTT [XGTACX_negctrl_site179]”, the “gcPBM binding intensity (ln)” value came out at 6.63.
For “CATATAAATAAACACACACACACATATATATATATA [CACACA_site5309]”, the “gcPBM binding intensity (ln)” value worked out at 9.27.
As to “ACCCTTCAATTTAATTGTACAAGAAAAAAAAAAAAA [XGTACX_site2927]”, the “gcPBM binding intensity (ln)” value stood at 6.41.
Consider “AAATAATCATAAAATAAACACACATATATAAATATA [CACACA_site7981]”, for which the “gcPBM binding intensity (ln)” value amounted to 6.51.
As to “TGCTCAAACTTTACAAATGAACGAATATAAAAAAAG [CACACA_negctrl_site541]”, the “gcPBM binding intensity (ln)” value amounted to 6.83.
Under “TTACAAAAAGGTAATTTACACACTGCATATAGGAAT [CACACA_site8956]” stands 7; under “TCTTAATATGGTAATACACACTAATATACTTTTGTT [CACACA_site4969]”, 6.59; under “GTTAATTTAATTATATGTACGAAAAAATACGTTATA [XGTACX_site1306]”, 6.16.
As for “TTTTTATTTTTTTATTTCTTATCAAATAAAATATAT [XGTACX_negctrl_site537]”, the “gcPBM binding intensity (ln)” value was determined as 6.22.
In the case of “AATATTTTGTTATTTATTTAATCTAATATTACTATC [CACACA_negctrl_site4]” it was 6.03; in that of “ATATATATATAAATATGTACATATATACATATATAC [XGTACX_site2374]”, 8.44; in that of “TAGGAAAATTACAAAAGTACTTGGCACATAATAATG [XGTACX_site6005]”, 6.64.
In the case of “ATTATAGAATATTGAAGTACAAAATTTAAAATAAGT [XGTACX_site1468]” it was 6.45.
Under “AAAAAAAAAAAATACACACAAACACAAATTAAATAA [CACACA_site3809]” stands 6.65; under “TAATTTATCCTATAATGTACTTATAAAATATATCAT [XGTACX_site1460]”, 6.3; under “ATTCAGAGTATATAAAAATTAATATATACATAATAT [CACACA_negctrl_site1782]”, 6.46.
Regarding “AGTCCATTTTATTATTGTACATATTAATTTATATCA [XGTACX_site672]”, the “gcPBM binding intensity (ln)” value stood at 7.11.
Under “ATGTACATAAACCGCACACATATAAAAAAATAAATA [CACACA_site5571]” stands 6.77; under “TAGATATTTTTGAAAAGTACAAATTTTTAAAAATTA [XGTACX_site4420]”, 6.05; under “TTATATAATGACAAAAAAAAAAAAAAAAAAAAAAAA [CACACA_negctrl_site1467]”, 6.21.
In the case of “GTATGATTACAAGAAAGTAGTCCACTTTAACAACAA [CACACA_negctrl_site1304]” it was 6.49.
As to “TATTTTGTCATAGAACGTACTTATAAATATTTTTTT [XGTACX_site8424]”, the “gcPBM binding intensity (ln)” value was 6.48.
For the sequence “ATAGAAGCTGTTGACGAAGAAAAAAAAAAAAAAAAA [CACACA_negctrl_site110]”, the “gcPBM binding intensity (ln)” value stood at 6.54.
